Laboratory results from US20250034274A1 (Daiichi Sankyo, published 2025).
One block for each binder: values may come before it.

Assays:
[1] = target: T1, biotinylated human CD98 antigen (human, UniProt P08195 105-529, biotinylated with EZ-Link NHS-PEG4-Biotin (for ELISA)); experiment: ELISA, immobilised biotinylated human CD98, anti-human IgG-HRP, chemiluminescence
T1 construct: extracellular domain
T1 sequence (looked up): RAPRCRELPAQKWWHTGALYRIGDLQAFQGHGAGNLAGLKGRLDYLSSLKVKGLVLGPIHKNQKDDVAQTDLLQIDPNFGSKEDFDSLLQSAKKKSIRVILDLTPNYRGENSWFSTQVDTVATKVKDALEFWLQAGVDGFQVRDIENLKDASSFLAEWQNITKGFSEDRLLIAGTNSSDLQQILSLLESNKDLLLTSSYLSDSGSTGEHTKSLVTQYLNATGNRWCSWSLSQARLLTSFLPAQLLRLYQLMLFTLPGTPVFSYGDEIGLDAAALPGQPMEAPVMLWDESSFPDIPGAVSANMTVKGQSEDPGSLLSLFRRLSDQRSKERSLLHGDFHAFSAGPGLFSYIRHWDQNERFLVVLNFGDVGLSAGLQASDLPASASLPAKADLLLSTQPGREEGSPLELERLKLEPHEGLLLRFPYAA

[2] = target: T1, biotinylated human CD98 antigen; experiment: ELISA, immobilised biotinylated human CD98, anti-human IgG-HRP, chemiluminescence; antibody pre-incubated with MMP1
[3] = target: T1, biotinylated human CD98 antigen; experiment: ELISA on human CD98, antibody with or without MMP1 cleavage
[4] = target: T1, biotinylated human CD98 antigen; experiment: ELISA, immobilised biotinylated human CD98, anti-human IgG-HRP, chemiluminescence; without MMP1
[5] = target: T1, biotinylated human CD98 antigen; experiment: ELISA, immobilised biotinylated human CD98, anti-human IgG-HRP, chemiluminescence; antibody pre-incubated with MMP1; remark: listed apart in the source
[6] = target: T1, biotinylated human CD98 antigen; experiment: ELISA, immobilised biotinylated human CD98, anti-human IgG-HRP, chemiluminescence; antibody pre-incubated with CAPN1
[7] = target: T1, biotinylated human CD98 antigen; experiment: ELISA, immobilised biotinylated human CD98, anti-human IgG-HRP, chemiluminescence; without protease
[8] = target: T1, biotinylated human CD98 antigen; experiment: ELISA, immobilised biotinylated human CD98, anti-human IgG-HRP, chemiluminescence; antibody pre-incubated with uPA
[9] = target: T1, biotinylated human CD98 antigen; experiment: ELISA, immobilised biotinylated human CD98, anti-human IgG-HRP, chemiluminescence; without protease; remark: listed apart in the source
[10] = target: T1, biotinylated human CD98 antigen; experiment: ELISA, immobilised biotinylated human CD98, anti-human IgG-HRP, chemiluminescence; antibody pre-incubated with uPA; remark: listed apart in the source
[11] = target: T1, biotinylated human CD98 antigen; experiment: ELISA, immobilised biotinylated human CD98, anti-human IgG-HRP, chemiluminescence; antibody pre-incubated with CAPN1; remark: listed apart in the source
[12] = target: T1, biotinylated human CD98 antigen; experiment: ELISA, immobilised biotinylated human CD98, anti-human IgG-HRP, chemiluminescence; without MMP1; remark: listed apart in the source

B1: anti-CD98 antibody hM23H1L1 (antibody)
heavy: QVQLVQSGAEVKKPGASVKVSCKASGYAFSNYLIEWVRQAPGQGLEWMGVINPGSGVTNYNEKFKGRVTITADTSTSTAYMELSSLRSEDTAVYYCARAEAWFAYWGQGTLVTVSSASTKGPSVFPLAPSSKSTSGGTAALGCLVKDYFPEPVTVSWNSGALTSGVHTFPAVLQSSGLYSLSSVVTVPSSSLGTQTYICNVNHKPSNTKVDKRV[human IgG1 Fc not shown]
light: DIVMTQSPDSLAVSLGERATINCKSSQSLLYSSNQKNYLAWYQQKPGQPPKLLIYWASTRESGVPDRFSGSGSGTDFTLTISSLQAEDVAVYYCQRYYGYPWTFGQGTKVEIKRTVAAPSVFIFPPSDEQLKSGTASVVCLLNNFYPREAKVQWKVDNALQSGNSQESVTEQDSKDSTYSLSSTLTLSKADYEKHKVYACEVTHQGLSSPVTKSFNRGEC
notes: Known antibody of WO 2015/146132
EC50 (read off the curve) [1]: ~0.8 nM

B2: MhM1013-M1 (antibody)
heavy: QVQLVQSGAEVKKPGASVKVSCKASGAAFSNYLIEWVRQAPGQGLEWMGVINPGSGVTNYNEKFKGRVTITADTSTSTAYMELSSLRSEDTAVYYCARAEAWFAYWGQGTLVTVSSASTKGPSVFPLAPSSKSTSGGTAALGCLVKDYFPEPVTVSWNSGALTSGVHTFPAVLQSSGLYSLSSVVTVPSSSLGTQTYICNVNHKPSNTKVDKRV[human IgG1 Fc not shown]
light: GNFYHQYPWPLEILGSGSGGGGSVLVPMAMMASGGSDIVMTQSPDSLAVSLGERATINCKSSQSLLYSSNQKNYLAWYQQKPGQPPKLLIYWASTRESGVPDRFSGSGSGTDFTLTISSLQAEDVAVYYCQRYYGYPWTFGQGTKVEIKRTVAAPSVFIFPPSDEQLKSGTASVVCLLNNFYPREAKVQWKVDNALQSGNSQESVTEQDSKDSTYSLSSTLTLSKADYEKHKVYACEVTHQGLSSPVTKSFNRGEC
notes: Heavy chain of hM23-M1 and light chain of MhM1013
EC50 (read off the curve) [2]: ~0.5 nM
EC50 ratio of binding intensity (under the condition without the addition of MMP1/under the condition with the addition of MMP1) [3]: 552

B4: MhM1020-M1 (antibody)
heavy: QVQLVQSGAEVKKPGASVKVSCKASGAAFSNYLIEWVRQAPGQGLEWMGVINPGSGVTNYNEKFKGRVTITADTSTSTAYMELSSLRSEDTAVYYCARAEAWFAYWGQGTLVTVSSASTKGPSVFPLAPSSKSTSGGTAALGCLVKDYFPEPVTVSWNSGALTSGVHTFPAVLQSSGLYSLSSVVTVPSSSLGTQTYICNVNHKPSNTKVDKRV[human IgG1 Fc not shown]
light: GNFYHQYPWPLEILGSGGGGSGGGGSGGGPLFAAPGGSDIVMTQSPDSLAVSLGERATINCKSSQSLLYSSNQKNYLAWYQQKPGQPPKLLIYWASTRESGVPDRFSGSGSGTDFTLTISSLQAEDVAVYYCQRYYGYPWTFGQGTKVEIKRTVAAPSVFIFPPSDEQLKSGTASVVCLLNNFYPREAKVQWKVDNALQSGNSQESVTEQDSKDSTYSLSSTLTLSKADYEKHKVYACEVTHQGLSSPVTKSFNRGEC
notes: Anti-CD98 masked antibody; CAPN substrate
EC50 (read off the curve) [6]: ~3 nM
EC50 (read off the curve) [7]: ~100 nM
EC50 (read off the curve) [8]: ~100 nM

B5: MhM1019-M1 (antibody)
heavy: QVQLVQSGAEVKKPGASVKVSCKASGAAFSNYLIEWVRQAPGQGLEWMGVINPGSGVTNYNEKFKGRVTITADTSTSTAYMELSSLRSEDTAVYYCARAEAWFAYWGQGTLVTVSSASTKGPSVFPLAPSSKSTSGGTAALGCLVKDYFPEPVTVSWNSGALTSGVHTFPAVLQSSGLYSLSSVVTVPSSSLGTQTYICNVNHKPSNTKVDKRV[human IgG1 Fc not shown]
light: GNFYHQYPWPLEILGSGGGGSGRSANAGGSGGGGSGGSDIVMTQSPDSLAVSLGERATINCKSSQSLLYSSNQKNYLAWYQQKPGQPPKLLIYWASTRESGVPDRFSGSGSGTDFTLTISSLQAEDVAVYYCQRYYGYPWTFGQGTKVEIKRTVAAPSVFIFPPSDEQLKSGTASVVCLLNNFYPREAKVQWKVDNALQSGNSQESVTEQDSKDSTYSLSSTLTLSKADYEKHKVYACEVTHQGLSSPVTKSFNRGEC
notes: Anti-CD98 masked antibody; uPA substrate only
EC50 (read off the curve) [9]: 70 to 80 nM
EC50 (read off the curve) [10]: ~0.6 nM
EC50 (read off the curve) [11]: 70 to 80 nM

Further lines, results first:

EC50 (read off the curve) [4]: ~30 nM
EC50 ratio of binding (under the condition without the addition of MMP1/under the condition with the addition of MMP1) [3]: 132
EC50 (read off the curve) [5]: ~0.2 nM
B3: anti-CD98 masked antibody MhM1008 (antibody)
heavy: QVQLVQSGAEVKKPGASVKVSCKASGYAFSNYLIEWVRQAPGQGLEWMGVINPGSGVTNYNEKFKGRVTITADTSTSTAYMELSSLRSEDTAVYYCARAEAWFAYWGQGTLVTVSSASTKGPSVFPLAPSSKSTSGGTAALGCLVKDYFPEPVTVSWNSGALTSGVHTFPAVLQSSGLYSLSSVVTVPSSSLGTQTYICNVNHKPSNTKVDKRV[human IgG1 Fc not shown]
light: GENMWNDLDLVPLGILGSGGGGSVLVPMAMMASGGSDIVMTQSPDSLAVSLGERATINCKSSQSLLYSSNQKNYLAWYQQKPGQPPKLLIYWASTRESGVPDRFSGSGSGTDFTLTISSLQAEDVAVYYCQRYYGYPWTFGQGTKVEIKRTVAAPSVFIFPPSDEQLKSGTASVVCLLNNFYPREAKVQWKVDNALQSGNSQESVTEQDSKDSTYSLSSTLTLSKADYEKHKVYACEVTHQGLSSPVTKSFNRGEC
notes: Mimotope from Linear 15mer lib and MMP cleavable linker on the light chain

EC50 (read off the curve) [12]: ~100 nM
EC50 (read off the curve) [2]: ~0.5 nM
EC50 ratio of binding (under the condition without the addition of MMP1/under the condition with the addition of MMP1) [3]: 326
EC50 ratio of binding intensity (under the condition without the addition of MMP1/under the condition with the addition of MMP1) [3]: 239
B6: anti-CD98 masked antibody MhM1013 (antibody)
heavy: QVQLVQSGAEVKKPGASVKVSCKASGYAFSNYLIEWVRQAPGQGLEWMGVINPGSGVTNYNEKFKGRVTITADTSTSTAYMELSSLRSEDTAVYYCARAEAWFAYWGQGTLVTVSSASTKGPSVFPLAPSSKSTSGGTAALGCLVKDYFPEPVTVSWNSGALTSGVHTFPAVLQSSGLYSLSSVVTVPSSSLGTQTYICNVNHKPSNTKVDKRV[human IgG1 Fc not shown]
light: GNFYHQYPWPLEILGSGSGGGGSVLVPMAMMASGGSDIVMTQSPDSLAVSLGERATINCKSSQSLLYSSNQKNYLAWYQQKPGQPPKLLIYWASTRESGVPDRFSGSGSGTDFTLTISSLQAEDVAVYYCQRYYGYPWTFGQGTKVEIKRTVAAPSVFIFPPSDEQLKSGTASVVCLLNNFYPREAKVQWKVDNALQSGNSQESVTEQDSKDSTYSLSSTLTLSKADYEKHKVYACEVTHQGLSSPVTKSFNRGEC
notes: Mimotope from ZPZP lib and MMP cleavable linker on the light chain
